Measurements reported in publication PMC4336329 (PLoS ONE, 2015).
In all, about 310,000 compounds went through this assay and about 2,200 (0.71%) showed an effect of 50% or more. The effect is printed as a negative number. This is one part of the list.

Target: human ether-à-go-go-related gene (hERG) potassium channel (human, UniProt Q12809)
Test: primary screen, population patch clamp on CHO cells stably expressing hERG

Sequence of human ether-à-go-go-related gene (hERG) potassium channel (Q12809 whole entry, looked up): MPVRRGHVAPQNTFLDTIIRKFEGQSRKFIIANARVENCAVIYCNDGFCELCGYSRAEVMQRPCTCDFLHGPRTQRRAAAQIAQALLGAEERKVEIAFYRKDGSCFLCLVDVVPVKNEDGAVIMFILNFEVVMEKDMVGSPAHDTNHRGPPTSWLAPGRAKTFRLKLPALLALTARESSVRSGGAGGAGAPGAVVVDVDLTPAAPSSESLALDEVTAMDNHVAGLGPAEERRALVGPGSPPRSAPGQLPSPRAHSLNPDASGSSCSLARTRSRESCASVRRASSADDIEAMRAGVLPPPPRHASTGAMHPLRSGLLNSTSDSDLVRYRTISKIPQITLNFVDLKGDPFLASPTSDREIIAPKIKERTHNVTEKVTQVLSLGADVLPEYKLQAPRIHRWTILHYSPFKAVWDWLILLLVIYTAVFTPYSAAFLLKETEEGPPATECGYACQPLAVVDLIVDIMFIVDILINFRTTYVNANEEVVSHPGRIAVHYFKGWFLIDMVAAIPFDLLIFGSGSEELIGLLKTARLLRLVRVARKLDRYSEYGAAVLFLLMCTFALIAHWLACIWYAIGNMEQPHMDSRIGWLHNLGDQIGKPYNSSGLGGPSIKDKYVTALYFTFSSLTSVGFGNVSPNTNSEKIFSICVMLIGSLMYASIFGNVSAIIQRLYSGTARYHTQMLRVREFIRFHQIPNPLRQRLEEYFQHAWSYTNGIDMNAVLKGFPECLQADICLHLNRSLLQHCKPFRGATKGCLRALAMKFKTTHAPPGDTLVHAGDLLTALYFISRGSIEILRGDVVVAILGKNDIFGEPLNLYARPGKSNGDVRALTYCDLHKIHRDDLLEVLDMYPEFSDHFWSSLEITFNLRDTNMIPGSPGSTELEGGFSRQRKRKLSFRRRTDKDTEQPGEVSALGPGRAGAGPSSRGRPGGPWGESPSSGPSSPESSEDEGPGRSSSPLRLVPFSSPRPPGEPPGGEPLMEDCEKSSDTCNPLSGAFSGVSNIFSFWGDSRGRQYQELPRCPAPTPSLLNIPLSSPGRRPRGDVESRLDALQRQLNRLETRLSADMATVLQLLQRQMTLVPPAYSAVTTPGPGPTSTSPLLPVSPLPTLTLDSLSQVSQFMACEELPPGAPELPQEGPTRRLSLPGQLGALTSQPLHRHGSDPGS

Row | Structure (SMILES) | hERG current change (%, negative = inhibition) at 1uM [%]
1 | O=C(N/N=C\C=C\c1ccc2c(c1)OCO2)C1COc2cc3ccccc3cc2O1 (stereo not drawn) | 9.47
2 | CCOC(=O)CN1C(=O)N[C@@H](CCc2ccccc2)[C@H](C(=O)OC)[C@H]1C | 16.7
3 | CCOc1nc(CC(C)C)c2c(c1C#N)CC(C)(C)OC2 | 7.65
4 | CN1C[C@H](CO)C=C2c3cccc4[nH]cc(c34)C[C@H]21 | 9.33
5 | COc1ccc(N2CCN(C(=O)C3CCCN(S(=O)(=O)c4ccc5c(c4)oc(=O)n5C)C3)CC2)cc1 (stereo not drawn) | 10.3
6 | CCOC(=O)c1ccccc1NC(=O)CN(c1ccccc1OC)S(C)(=O)=O | -1.2
7 | COc1ccc(OC)c(C2C(C(=O)c3cccs3)=C(O)C(=O)N2CCN(C)C)c1 (stereo not drawn) | 9.34
8 | Cc1ccc(OCC(=O)Nc2ccc(Cl)cc2)c([N+](=O)[O-])n1 | 8.73
9 | CN1CCN(S(=O)(=O)CC2(C)C3CCC2(C)C(=O)C3Br)CC1 (stereo not drawn) | 12.8
10 | Cn1c(=O)oc2cc(S(=O)(=O)N3CCN(c4ccc(F)cc4)CC3)ccc21 | -1.74
11 | CCN1CCN(c2nc3ccccc3nc2C(C#N)S(=O)(=O)c2ccc(C)cc2)CC1 (stereo not drawn) | -0.395
12 | O=C(Nc1ccccc1)C1CC(=O)N(Cc2ccccc2)C1 (stereo not drawn) | 2.48
13 | COc1cccc(N2C(=O)C3CCCN3C2c2ccc(Cl)cc2)c1 (stereo not drawn) | 7.82
14 | O=C(CCl)NCCCN(C(=O)C(Cl)Cl)c1ccc([N+](=O)[O-])cc1 | 6.22
15 | Cc1cccc(OCC(=O)NCCNC(=O)c2cnccn2)c1 | 14
16 | CC1=CC(C)(C)Nc2ccccc21.Cl | 10.3
17 | CN(Cc1nc(-c2ccccn2)no1)S(=O)(=O)c1ccccc1 | 10.5
18 | COc1ccc(-n2nnnc2SCC(=O)Nc2cc(OC)c([N+](=O)[O-])cc2C)cc1 | 23.2
19 | Cc1cccc(NC(=O)c2ccc(S(=O)(=O)N3CCCCC3)cc2)n1 | 10.9
20 | Cc1ccc(N=C(N(C)C)P(=O)(N(C)C)N(C)C)cc1 | 13.6
21 | CC(=O)Nc1nnc(SCC(=O)NCCOc2ccccc2)s1 | 3.75
22 | COc1ccc(-c2n[nH]c3c2CN(C(=O)c2ccc(F)cc2)CC3)cc1 | -7.22
23 | O=C(O)CN1C(=O)NC2(CCc3ccccc32)C1=O (stereo not drawn) | 14.3

Row | Structure (SMILES) | hERG current change (%, negative = inhibition) at 1uM [%]
24 | O=C(COc1ccc2c(-c3ccccc3)cc(=O)oc2c1)NCc1cccs1 | 18.3
25 | Cc1ccccc1SCC(=O)OCC(=O)NCCNC(=O)COC(=O)CSc1ccccc1C | -3.06
26 | O=S(=O)(NCc1ccc2c(c1)OCO2)c1ccccc1F | 13.5
27 | O=C(C1CCCCC1)N1CCN(c2ccnc3cc(Cl)ccc23)CC1 | -27.1
28 | Cc1c(NC(=O)CSc2nc3c(cnn3-c3ccccc3)c(=O)[nH]2)c(=O)n(-c2ccccc2)n1C | 15.6
29 | Cc1cc(=O)oc2c(C(=O)/C=C\c3cccs3)c(O)ccc12 | 9.2
30 | COc1ccccc1OCC(=O)Sc1ccc(C)cc1 | 37.1
31 | CCOc1ccc(OCCSc2nc(C)cc(=O)[nH]2)cc1 | 3.33
32 | Cc1nc2c(C#N)cnn2c2c1CCN2CC1CCCO1 (stereo not drawn) | 0.18
33 | Cc1onc(-c2ccccc2Cl)c1C(=O)N1CCN(C(=O)c2ccco2)CC1 | 3.6
34 | Cc1ccc(-n2nnnc2SC(C)C(=O)Nc2ccccc2-c2ccccc2)cc1 (stereo not drawn) | 3.07
35 | COc1ccc(CCNc2oc(Cc3cccc4ccccc34)nc2C#N)cc1OC | 3.56
36 | COC(=O)CC(NC(=S)N1CC2C[C@@H](C1)Cn1c2cccc1=O)C(=O)OC (stereo partly drawn) | 11
37 | CC(C)C(NC(=O)c1ccc(F)cc1)C(=O)NC1(C)CCS(=O)(=O)C1 (stereo not drawn) | 8.95
38 | CNC(=S)N/N=C/c1ccc(N2CCOCC2)s1 | 22.3
39 | CC(OC(=O)c1cccc(S(=O)(=O)N2CCCCCC2)c1)C(=O)Nc1ccc(S(N)(=O)=O)cc1 (stereo not drawn) | 14.8
40 | COc1ccc(-c2nc(N)ncc2-c2ccccc2OC)c(O)c1 | 11.6
41 | Brc1ccc(CSc2ccc3nnc(-c4ccccn4)n3n2)cc1 | -12.7
42 | N#Cc1c(/N=C/N2CCOCC2)sc2c1CCCCC2 | 3.12
43 | S=C(Nc1ccccc1)N1CCc2ccccc21 | 7.86
44 | COc1ccccc1C1CC(=O)Nc2cc3c(cc21)OCCO3 (stereo not drawn) | 6.33
45 | CCOC(=O)c1ccc(NC(=O)CSc2nc3ncccc3[nH]2)cc1 | 3.18
46 | Cc1nnc(NC2=NCCC2)o1 | 4.91

Row | Structure (SMILES) | hERG current change (%, negative = inhibition) at 1uM [%]
47 | Cc1cc(NC(=O)C2(c3ccccc3)CCCC2)no1 | 14.4
48 | CC/C(=N/NC(=O)CCC(=O)Nc1ccccc1OC)c1ccccc1 | 7.96
49 | O=C(CNc1cccc(C(F)(F)F)c1)N/N=C/c1cccc(Br)c1 | 14.3
50 | Cc1ccc(NC(=O)CNC(=O)c2ccco2)nc1 | 14.1
51 | Cc1ccccc1-n1c([O-])c([C@@H](c2cc[nH+]cc2)c2c(O)n(-c3ccccc3C)c(=O)[nH]c2=O)c(=O)[nH]c1=O | 20.3
52 | CCCOc1ccc(C(=O)CCC(=O)NNC(=O)Cn2nc(C)cc2C)cc1 | 13
53 | O=C(Nc1cccc(N=Cc2cc(Cl)cc(Br)c2O)c1)c1ccco1 | 3.8
54 | CCCCN(C(=O)NC(=O)Nc1ccccc1OC)S(C)(=O)=O | 6.65
55 | CC(=O)c1c(C(C)=O)c(C)n(-c2ccc(O)cc2)c1C | -7.34
56 | O=C(COC(=O)c1cc(F)cc(F)c1)NCCCc1ccccc1 | 11.7
57 | COc1ccccc1N1C(=O)CCC1(C#N)c1ccc(Br)cc1 (stereo not drawn) | 5.05
58 | COc1nc2ccccc2nc1N1CCN(c2ccc(F)cc2)CC1 | 13.9
59 | COc1ccc(/C=N\NC(=O)CNC(=O)C(c2ccccc2)c2ccccc2)cc1[N+](=O)[O-] | -7.74
60 | COCCCNC(=O)c1ccc(NC(C)=O)cc1 | 4.38
61 | C#CC(CC)(CC)NC(=O)c1c(C)noc1C | -5.74
62 | COc1cccc(CN2C(=O)c3cccc(N)c3C2=O)c1 | 4.68
63 | Cc1ccc(S(=O)(=O)/N=S(/C)c2ccccc2)cc1 (stereo not drawn) | 9.01
64 | COc1ccc(-c2ccc(C3C(C#N)=C(N)Oc4n[nH]c(C)c43)o2)cc1 (stereo not drawn) | 14.6
65 | CS(=O)(=O)N1CCCC(C(=O)NCc2ccc(F)cc2Cl)C1 (stereo not drawn) | 7.67
66 | CC1(C)Cc2c(sc(NC(=O)C(=O)N3CCCC3)c2C(=O)O)CO1 | 8.46
67 | Cc1cc(C(=O)c2ccccc2)nc2ccccc12 | 10.7
68 | Cc1cccc(CNC(=O)CC2C(=O)NCCN2C2CCCC2)c1 (stereo not drawn) | 17.5
69 | COc1ccc(N2CCN(C(=O)CSc3ccccc3N)CC2)cc1 | 8.83

Row | Structure (SMILES) | hERG current change (%, negative = inhibition) at 1uM [%]
70 | O=C1CCCC(O)=C1C1NCCc2ccccc21 (stereo not drawn) | 9.52
71 | COc1ccc(CN(CC(=O)NC2CCCC2)C(=O)CCC(=O)Nc2nc(C)cs2)cc1 | -8.94
72 | COc1ccc(C2(C(F)(F)F)NC(=O)N(C)C(=O)N2C)cc1 (stereo not drawn) | 2.41
73 | Cc1sc2ncnc(N3CCC(C(=O)Oc4cccc(Cl)c4Cl)CC3)c2c1C | 16.1
74 | FC(F)(F)c1ccccc1N/N=C/c1cccnc1 | 13.9
75 | Cc1ccc(OCc2nnc(SCC(=O)Nc3sc(C)c(C)c3C#N)n2C)cc1 | 18.3
76 | Cc1ccc2[nH]c3c(N4CCc5ccccc5C4)ncnc3c2c1 | 4.65
77 | CN(CC(=O)Nc1nccs1)S(=O)(=O)c1ccc(F)cc1 | 1.55
78 | Cc1ccc(Nc2nc(N)c([N+](=O)[O-])c(N3CCOCC3)n2)cc1C | 9.34
79 | O=C(C(Sc1ccccc1)c1ccccc1)N1CCN(c2ccccc2)CC1 (stereo not drawn) | 14.9
80 | Cc1ccc(-c2cc(C(F)F)n3ncc(C(=O)N4CCc5ccccc5C4)c3n2)cc1 | 9.96
81 | CC(=O)NCCc1nc2ccccc2n1Cc1cccc(C)c1 | 2.8
82 | O=C(c1cccc(Br)c1)N1CCN(c2ccccn2)CC1 | 14.9
83 | O=C(CN1C(=O)CC(c2ccco2)Sc2ccccc21)NC1CCCCC1 (stereo not drawn) | -10.2
84 | CC(=O)Nc1ccc(Oc2nc(C)cc(C)n2)cc1 | 9.47
85 | Cc1cccc(N2CCN(S(=O)(=O)c3ccc4c(c3)CCCN4C(=O)C3CCC3)CC2C)c1 (stereo not drawn) | 11
86 | Cc1nn(CC(=O)NCc2ccccc2Cl)c(C)c1[N+](=O)[O-] | 13.3
87 | COc1ccc(C(=O)Nc2cc([N+](=O)[O-])ccc2N2CCN(C)CC2)cc1 | -9.81
88 | C#CCn1c(=NC(=O)CSCC(=O)N2CCOCC2)sc2ccccc21 | 10.8
89 | COc1ccc(-c2[nH]c(-c3ccc(C)cc3)nc2SCC(=O)NC2CCCC2)cc1 | 3.67
90 | NC(=O)NC(=O)C(Nc1ccc2c(c1)CCC2)c1ccccc1 (stereo not drawn) | 16.8
